# The supplement of paper PMC11417369
# Some of the results follow.
# System: PfHDP1 homeodomain (GST-tagged)
# Test: gcPBM binding intensity (ln(normalized median fluorescence intensity)); higher = stronger DNA binding
# Method in brief: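 An Agilent 4 × 180k array carrying primer-extended double-stranded 36-bp intergenic genomic probes and negative controls received GST-tagged P. falciparum DNA-binding domains expressed in E. coli, about 25 μg on average, for 1 h. The binding buffer contained 1× PBS, 1% milk, 0.2 mg/ml BSA, 0.5% salmon testes DNA and 0.03% Triton X-100. Binding intensity is the top Masliner-normalised natural-log median intensity across replicate spots of either probe orientation, read after Alexa488 anti-GST antibody staining and a 488 nm scan.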
row,Sequence,gcPBM binding intensity (ln)
1,TTAAATAAATAAAAATGTACATGCATATATAAATAT [XGTACX_site8908],6.65
2,AATAAATTATGAACGGTGCAGGAAAAATTGTAACAT,8.21
3,TAGATTATTTTATTTAGTACATAAAAAAGTAAGACC [XGTACX_site7889],6.63
4,TGAAGTGCAAAATACTGTACGTAATGTGCTTGTTAC [XGTACX_site4512],9.73
5,AAACATAAGGGACACACACACATATATATATATATA [CACACA_site5920],9.24
6,CAAAAAAACAAACACACACACACACCGATATATATA [CACACA_site9218],6.92
7,AAAAAAAAATGTCATGGTACACAATTTTTTCTTTTT [XGTACX_site4505],5.89
8,TAAAGTAAAACAAGGTAAGGTTTTTCTTTTTCTTTT [CACACA_negctrl_site1271],5.7
9,TATATCCACATTTTTAGTACTTAAAAATAAATAAAC [XGTACX_site3826],6.62
10,TTCTGACCAATGCTATAAAATAATACAAAAGAAAAA [GTGCAC_negctrl_site3],6.47
11,TGAAGAGGAAACAAACAAAATGAATAATTAAAAAGG [CACACA_negctrl_site1601],6.69
12,TTTTGTTATAATAAAGTGCATTTAGTCGGGTTACAA [GTGCAC_site9779],8.3
13,AAATATTATAAAAAGGTGCATTTTTATTATATGAGT,8.91
14,CTAGGTATGCTTTAAACATGCAAAAATACAAATTAC [TGCATGCA_site239],6.71
15,ATATATAAATATATTTGTACATATAATATGTATTAT [XGTACX_site8820],6.61
16,AATTTAAAAAAAATCACACACAGAAAAAAAAAAAAA [CACACA_site2322],6.23
17,ATATATGTTTTTATATGTACTTATAATGTGTGTATA [XGTACX_site5165],6.69
18,TTTCTTCATTTTTTCACACATAAGAAAATATAATCA [CACACA_site4275],6.59
19,AAGGAAAACAATAGGTGTACCAAACGTCCTAGGAAC [XGTACX_site5732],6.48
20,AAAAAAGCAATATGATGTACATTTACTTTGTGAAAG [XGTACX_site4450],6.47
21,TAAAAAAATAAAATTACACACATATATAAATATATA [CACACA_site2620],6.21
22,AAAAAAAGTTATATTACACACTTTATTCGTTAACTT [CACACA_site3013],6.48
23,ACAACAATATTTGAATGTACTCTATTTTCGTTGTTC [XGTACX_site593],6.45

row,Sequence,gcPBM binding intensity (ln)
1,ATATTTATGAAGTTCACACATATATATATATATATA [CACACA_site5954],9.49
2,GATAAATTAAAACACACACACATATATATATATATA [CACACA_site3962],9.45
3,TTATAATAAAATGAATATATATAATTTAAAATATTT [CACACA_negctrl_site1651],6.33
4,AAAAAAATAGTCTTCTTGCACTTTTTAATTTATTTT,6.7
5,TATATATAAATATGCTGTACGTTTTAATACGTTAAG [XGTACX_site2378],6.2
6,ATACACACTCAAAAAAGTACTTAACTACATGAATTG [XGTACX_site6366],6.64
7,TAATTATATTCACTTGCTATATAAATTATATATATT [CACACA_negctrl_site526],6.33
8,CTCAAAGGAATATTCACACATAAATTATAGACTACA [CACACA_site6050],6.42
9,GTATATATATATATATGCAAATGTATAAATCTACAT [CACACA_negctrl_site546],7.32
10,AAGAAAAAAATATATGTTTATTTACTTTAATAATTT [TGCATGCA_negctrl_site168],5.83
11,TAATATTTACATATTACACACACGTATTATTAAATA [CACACA_site6340],6.64
12,TATTTTTTAAAAATGGGTACACATAAATAAATAAAT [XGTACX_site7643],6.83
13,TGTGAATAAATAAGCACACATAAACCCATATATAAA [CACACA_site4103],6.83
14,ATCTAAACAAATAATACACACAATAAAATAGGAAGA [CACACA_site4072],7.05
15,AATCACCAAATATGTACACACCTTAACATGTTTATA [CACACA_site5180],6.9
16,AAGAAAAATTTAAACTGTACTTGTTTTCCAATGAAC [XGTACX_site4443],6.38
17,AAAAAAAAAAAAGTTACACACAAATAAAATATTTGG [CACACA_site694],6.11
18,ATTATTCATTTATGTAGTACATTTTAATACATTTAA [XGTACX_site3599],6.64
19,ATAAAAAAAAATAAATGTACAAATTAACAAAATAAT [XGTACX_site5048],6.86
20,AAATAAAACAATTAACGTACAAGCATATATATATAT [XGTACX_site8508],9.1
21,ATTTATTAAATTTATAGTACTCAAAGATTTTTATTT [XGTACX_site6661],6.27
22,AAATAAAAAAAAATAGCACACATAAATATATTATAT [CACACA_site8155],6.87
